Measurements: PubChem BioAssay AID1671194 (National Center for Advancing Translational Sciences (NCATS), 2021)
Out of some 140,000 compounds screened, about 240 (0.17%) were called active. Inconclusive means that the source gave no clear call. Such entries were picked first, then a sample of the others. Calls come from the whole dose curve; as a rule, active = well fitted inhibition curve with a large enough effect; inconclusive = small, poorly fitted or top-dose-only effect; inactive = no such curve, though single readings can be large or run the other way. Where the call is inconclusive, the potency comes from a doubtful curve fit.

experiment: Primary qHTS assay for inhibitors of alpha-synuclein gene (SNCA) expression; conditions: HEK-293 SNCA-luciferase knock-in, luminescence, 24 h; series mostly up to 57.2 µM; note: nearly all actives have a fitted effect of over 45% in size
Potency is the fitted concentration of half-maximal effect; tags give direction and shape of the fitted curve.

Row | SMILES | Potency
1 | CC(C)(C)NC(=O)NCc1nnc2n1C(C(=O)NCc1ccc(F)cc1)CC2 (stereo not drawn) | inactive
2 | Cc1cccc(Nc2cc(C)nc(-n3nc(C)cc3C)n2)c1 | inconclusive: 39.8 µM [inhibitor, single point]
3 | N#Cc1ccc(CN2CCC3(CC2)CCN(S(=O)(=O)c2ccccc2)CC3)cc1 | inconclusive: 11.2 µM [inhibitor, single point]
4 | CCCN(CC1CCOC1)S(=O)(=O)c1ccc(OC)c(OC)c1 (stereo not drawn) | inconclusive: 3.16 µM [inhibitor, single point]
5 | O=C(NCCn1cccn1)c1cccc(S(=O)(=O)NC2CCNCC2)c1 | inconclusive: 2.51 µM [inhibitor, partial curve, poor fit]
6 | CNC(=O)[C@@H]1C[C@H](Oc2ccccc2)CN1C1CCN(Cc2cccc(C#N)c2)CC1 | inactive
7 | C=CCn1cc2c3c(cccc31)[C@H](CC(C)C)N[C@H](C(=O)NCCN1CCOCC1)C2 | inactive
8 | Fc1ccc(Cc2nc3nccc(-c4ccc5c(c4)OCCCO5)n3n2)cc1 | inconclusive: 15.8 µM [inhibitor, partial curve, poor fit]
9 | O=C(C1CCOCC1)N1CC(CO)C2(CCNCC2)C1 (stereo not drawn) | inconclusive: 39.8 µM [inhibitor, single point]
10 | CO[C@H]1CN(C2CCN(C(=O)CC3CCCCC3)CC2)[C@H]1c1cccnc1 | inactive
11 | COCC(=O)Nc1nc2c(s1)C[C@]1(C)CC[C@@H]3[C@H](OC(=O)[C@H]3C)[C@H]1[C@@H]2C | inconclusive: 14.1 µM [inhibitor, partial curve, poor fit]
12 | CC1=C[C@@H](CNC(=O)C2CCCCC2)[C@H](C(C)C)C[C@H]1Cc1nc2ccc(C)cc2[nH]1 | inconclusive: 35.5 µM [inhibitor, partial curve, poor fit]
13 | O=C1NC(=O)c2cc(Nc3ccccc3)c(Nc3ccccc3)cc21 | inconclusive: 39.8 µM [inhibitor, single point]
14 | Cc1cc(OC(C)C(=O)N2CCC(c3nc4ccccc4o3)CC2)ccc1Cl (stereo not drawn) | inconclusive: 39.8 µM [inhibitor, single point]
15 | O=C(NCc1ccc(C(F)(F)F)cc1)c1nc2cccnc2n(CCc2ccccc2)c1=O | inactive
16 | CCN1c2cc(C(=O)Nc3cc(OC)cc(OC)c3)ccc2C(=O)N2CCCCCC21 (stereo not drawn) | inconclusive: 39.8 µM [inhibitor, single point]
17 | Cc1ccc(N(C)C(CNS(=O)(=O)c2ccccc2)c2ccccc2)cc1 (stereo not drawn) | inconclusive: 39.8 µM [inhibitor, single point]
18 | CC(=O)Nc1cccc(-c2cc(C(=O)NCc3c(C)cc(C)[nH]c3=O)c3c(c2)N(C(C)C)CCO3)c1 | inactive
19 | CCc1ccc(NC(=O)C2CCN(C(=O)c3nnn4cc(C)[nH]c(=O)c34)CC2)cc1 | inactive
20 | CCOC(=O)CCNC(=O)N1CCC(N2C(=O)C3(CCCC3)C2c2scnc2C)CC1 (stereo not drawn) | inconclusive: 10 µM [inhibitor, partial curve]
21 | CCOc1ccccc1NC(=O)Nc1cccc(-c2ccc(N3CCCC3)nn2)c1 | inconclusive: 39.8 µM [inhibitor, single point]

Row | SMILES | Potency
22 | CCOc1ccc(CCNC(=O)c2cc3sccc3n2CC)cc1OCC | inconclusive: 39.8 µM [inhibitor, single point]
23 | Cc1ccc(-c2noc(-c3nnn4c3COC(c3ccc(Cl)cc3)C4)n2)cc1 (stereo not drawn) | inconclusive: 11.2 µM [inhibitor, partial curve, poor fit]
24 | N[C@H]1CO[C@H]2[C@@H]1OC[C@@H]2n1cc(-c2ccccn2)nn1 | inactive
25 | O=C(Nc1ccc2c(N3CCOCC3)ncnc2c1)c1ccc(F)c(Cl)c1 | inconclusive: 25.1 µM [inhibitor, partial curve, poor fit]
26 | COCc1nc(-c2ccc(OC3CCN(C(=O)c4sc(C)nc4C)C3)cc2)no1 (stereo not drawn) | inactive
27 | Cc1cc(C)n(CCC(=O)N2CC(F)(F)C[C@H]2c2nc(C)no2)n1 | inactive
28 | CC(=O)N1CCNc2cc(NCc3ccc(F)cc3)ncc2C1 | inactive
29 | COc1ccc(-n2ncc(C(=O)N3CCN(C4CCCCC4)CC3)c2C2CCN(C(=O)OC(C)(C)C)CC2)cc1 | inconclusive: 7.08 µM [inhibitor, single point]
30 | Cc1cccc(CN2CCC3(CC2)Cc2ccccc2CNC3=O)c1 | inconclusive: 11.2 µM [inhibitor, partial curve, poor fit]
31 | COc1ccc(C(=O)N2CC[C@H]3COC(=O)N3c3ccccc3C2)cc1 | inconclusive: 39.8 µM [inhibitor, single point]
32 | CCc1cccc(NC(=O)CSc2nc3ccccc3nc2N2CCCCC2)c1 | inconclusive: 12.6 µM [inhibitor, partial curve, poor fit]
33 | CCCNC(=O)CSc1c2c(nc3ccc(Cl)cc13)CCCC2 | inconclusive: 39.8 µM [inhibitor, single point]
34 | CCCn1c2ccccc2c2cnn(CC(=O)N(CC)c3cc(C)ccc3C)c(=O)c21 | inconclusive: 39.8 µM [inhibitor, single point]
35 | CCc1ccccc1NC(=O)c1ccc(Cn2nc(N3CCN(c4ccccc4)CC3)ccc2=O)o1 | inconclusive: 39.8 µM [inhibitor, single point]
36 | CC1=C[C@@H](CNC(=O)CC2(CC(=O)O)CCCC2)[C@H](C(C)C)C[C@H]1Cc1nc2ccccc2n1C | inactive
37 | CCC(=O)N1CCc2cc(CNS(=O)(=O)c3ccc(C(C)C)cc3)ccc21 | inconclusive: 3.98 µM [inhibitor, partial curve, poor fit]
38 | CC1=C[C@@H](CN2CCN(c3cnccn3)CC2)[C@H](C(C)C)C[C@H]1Cc1nnc(-c2cccnc2)o1 | inconclusive: 11.2 µM [inhibitor, partial curve]
39 | O=C(NCc1ccco1)c1cc2c(s1)CCN(C(=O)c1ccc(Cl)cc1)C2 | inconclusive: 39.8 µM [inhibitor, single point]
40 | COc1ccc(CN2C(=O)[C@@H]3C[C@@H](CN3CC3CC3)Oc3ccccc32)cc1 | inconclusive: 20 µM [inhibitor, single point]
41 | COc1ccc(-n2nc3c(N4CCCC(C(=O)NCCc5ccccc5C)C4)nnc(C)c3c2C)cc1 (stereo not drawn) | inconclusive: 31.6 µM [inhibitor, single point]
42 | O=C(c1ccc(Cl)cc1)N1CCC2(C1)C(=O)N(Cc1ccccc1)c1ccccc12 (stereo not drawn) | inconclusive: 8.91 µM [inhibitor, single point]

Row | SMILES | Potency
43 | O=C(NCc1cccs1)c1cc(-c2ccccc2)c2nncn2n1 | inactive
44 | COc1cc(-c2nc3ccc(Cl)cn3c2Nc2ccc3c(c2)OCCO3)ccc1O | inconclusive: 6.31 µM [inhibitor, single point]
45 | N#Cc1ccc(CNC(=O)[C@@H]2Cc3nc[nH]c3CN2C(=O)NC2CCCCC2)cc1 | inactive
46 | Cc1ccc(CN2COc3c(Cl)cc4c(-c5ccccc5)cc(=O)oc4c3C2)cc1 | inconclusive: 39.8 µM [inhibitor, single point]
47 | CNC(=O)c1ccc2c(C(=Nc3cccc(CN(C)C)c3)c3ccccc3)c(O)[nH]c2c1 | inconclusive: 42.9 µM [inhibitor, single point]
48 | COCCn1c(=O)cnc2cnc(Nc3ccccc3)nc21 | inconclusive: 17.8 µM [inhibitor, partial curve, poor fit]
49 | CCN(CCc1nc2ccc(C)cc2[nH]1)C(=O)c1ccccc1C1CCNC1 (stereo not drawn) | inactive
50 | O=C1CCCN1C1CCN(Cc2cccnc2)CC1 | inconclusive: 3.16 µM [inhibitor, full curve, poor fit]
51 | O=C(NCC(F)(F)F)C1CCCN(c2nccc(Nc3ccccc3F)n2)C1 (stereo not drawn) | inconclusive: 28.2 µM [inhibitor, single point]
52 | CCn1ccc(C(=O)N2CC(Oc3ccc(-c4nc(-c5ccccc5)no4)cc3)C2)n1 | inconclusive: 31.6 µM [inhibitor, single point]
53 | CC(C)[C@H](CO)Nc1nc(Nc2ccc(C(=O)O)c(Cl)c2)c2ncn(C(C)C)c2n1 | inconclusive: 24.1 µM [inhibitor, partial curve, poor fit]
54 | COCC1CN(C)CC12CCN(C(=O)c1nccc3ccccc13)CC2 (stereo not drawn) | inactive
55 | O=C(NCC1Cn2cccc2CN1Cc1ccccc1)c1n[nH]c2ccccc12 (stereo not drawn) | inactive
56 | CC1=C(C(=O)Nc2ccccc2)C(c2cc(C)ccc2C)N2C(CC(=O)NC(C)C)=CSC2=N1 (stereo not drawn) | inconclusive: 7.08 µM [inhibitor, full curve, poor fit]
57 | Cc1ccc2c(C(=O)NCCc3cccs3)cc(NC(=O)C3CCC3)cc2n1 | inactive
58 | O=C1N(Cc2ccccc2)c2ccccc2C1(O)c1c[nH]c2ccccc12 (stereo not drawn) | inconclusive: 39.8 µM [inhibitor, single point]
59 | Cc1ccc(CSc2nc(-c3ccccc3C)nc3c2Cc2c(CO)cnc(C)c2O3)cc1 | inconclusive: 12.6 µM [inhibitor, partial curve]
60 | COc1ccc(C2c3c(n(C)c4ccccc34)C(=O)N2CC(=O)Nc2ccc(F)cc2)cc1 (stereo not drawn) | inconclusive: 39.8 µM [inhibitor, single point]
61 | CCN(C(=O)C1CCCN(c2ncnc3c2nc2n3CCCCC2)C1)c1cccc(Cl)c1 (stereo not drawn) | inconclusive: 39.8 µM [inhibitor, single point]
62 | CCN1c2cc(C(=O)Nc3cccc(Cl)c3)ccc2C(=O)N2CCCCCC21 (stereo not drawn) | inactive
63 | COc1ccc(CN2CCN3C(=O)N(Cc4ccc(OC)cc4)C[C@H]3C2)cc1 | inconclusive: 4.47 µM [inhibitor, full curve]
